In all, about 220,000 compounds went through this assay and about 16,000 (7.3%) were called active. This list was built around the results that the source calls inconclusive (neither active nor inactive); the mix of calls is not that of the screen. The call rests on the fitted dose curve; in most records, active means well fitted inhibition curve with a large enough effect (not every such curve was filed as active); inconclusive means small, poorly fitted or top-dose-only effect, or another doubt; inactive means no such curve, though single readings can be large or run the other way. Potencies of inconclusive entries are left out as doubtful fits.
target: Aldehyde dehydrogenase 1A1 (Homo sapiens) (UniProt P00352); experiment: qHTS Assay for Inhibitors of Aldehyde Dehydrogenase 1 (ALDH1A1); details: Purified ALDH1A1, NADH fluorescence, propionaldehyde substrate; series mostly up to 75.3 µM;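 on activity, negative = inhibition: plate controls were no enzyme wells and a reference inhibitor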
Sequence of UniProt P00352 (P00352 whole entry, looked up): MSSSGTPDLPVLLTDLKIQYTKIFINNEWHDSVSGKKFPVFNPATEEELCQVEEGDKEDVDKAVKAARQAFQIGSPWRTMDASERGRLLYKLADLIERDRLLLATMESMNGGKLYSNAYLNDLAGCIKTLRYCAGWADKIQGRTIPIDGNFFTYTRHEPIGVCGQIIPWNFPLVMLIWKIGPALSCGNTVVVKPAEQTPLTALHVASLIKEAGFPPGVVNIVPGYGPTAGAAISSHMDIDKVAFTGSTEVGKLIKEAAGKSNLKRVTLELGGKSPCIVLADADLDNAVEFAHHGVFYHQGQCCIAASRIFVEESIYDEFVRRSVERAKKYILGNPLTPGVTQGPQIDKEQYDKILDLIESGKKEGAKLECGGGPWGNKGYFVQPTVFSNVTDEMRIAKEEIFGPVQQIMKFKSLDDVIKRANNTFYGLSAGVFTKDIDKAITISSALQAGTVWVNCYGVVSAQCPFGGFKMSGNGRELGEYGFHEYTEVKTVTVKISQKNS
Potency means the concentration at half of the fitted maximal effect; tags describe the fitted curve by direction and shape.

| SMILES | Potency | activity, negative = inhibition |
| --- | --- | --- |
| CCN(CC)C(=O)C1=C(C)NC(=S)NC1c1cccs1 (stereo not given) | inconclusive [inhibitor, single point] | – |
| COc1ccc(N2CCN(C(c3cc4ccc(C)cc4[nH]c3=O)c3nnnn3C3CCCC3)CC2)cc1 (stereo not given) | inconclusive [inhibitor, partial curve] | – |
| Nc1nc(Cl)cc(NCCO)n1 | – | inactive: -1.38% [at 13.5 µM] |
| C/C(CCS(=O)(=O)c1ccccc1)=N/O | inactive | – |
| CCCCn1c2nc3ccccc3nc2c2c(=O)n(CCC(C)C)cnc21 | inconclusive [inhibitor, full curve, poor fit] | – |
| CCOC(=O)c1sc(-c2ccccc2)cc1NC(=O)CSc1nnnn1C | inconclusive [inhibitor, single point] | – |
| CN(C)Cc1cc(C(C)(C)C)cc(CNC2CCCCC2)c1O | – | inactive: 1.26% [at 13.5 µM] |
| CCN(c1ccc(NC(=O)COC(=O)c2ccc(C)s2)cc1)C(C)C | inconclusive [inhibitor, single point] | – |
| Cc1cc(CNC(=O)c2ccc(C)c([N+](=O)[O-])c2)c2ccccc2n1 | inconclusive [inhibitor, single point] | – |
| COc1cc(C2Nn3c(nnc3-c3ccccc3OC)S2)ccc1O (stereo not given) | active: 23.8 µM | – |
| CC(C)(C)NC(=O)COc1ccc(CNc2ccc3[nH]c(=O)[nH]c3c2)cc1 | inconclusive [inhibitor, single point] | – |
| Cc1ccc2c(c1)[nH]c1c(N3CCN(Cc4ccc5c(c4)OCO5)CC3)ncnc12 | inactive | – |
| O=C(COC(=O)[C@H](Cc1c[nH]c2ccccc12)NC(=O)c1ccc(Cl)cc1)Nc1ccc2c(c1)OCO2 | inconclusive [inhibitor, single point] | – |
| COC(=O)N/N=C/c1c(C)c(C(=O)c2ccc(F)cc2)n2ccccc12 | inconclusive [inhibitor, single point] | – |
| COC(=O)c1ccccc1NC(=S)NC(=O)COc1ccc(C(C)C)cc1 | active: 17.8 µM | – |
| CC(C)(C)c1ccc(C(=O)N2CCN(CCNC(=O)C(=O)NCc3ccccc3)CC2)cc1 | inconclusive [inhibitor, single point] | – |
| O=C(NNc1cccc(Cl)n1)Nc1ccccc1 | inconclusive [inhibitor, single point] | – |
| CCOC(=O)c1ccc(NC(=O)c2cc3c(C)nn(-c4ccccc4Cl)c3s2)s1 | inconclusive [inhibitor, single point] | – |
| Cc1c(C(=O)O)oc2ccc(S(=O)(=O)NC3CCCCCCC3)cc12 | inconclusive [inhibitor, single point] | – |
| O=C(Nc1cccc(Cn2cccn2)c1)c1cc2c(s1)CCCC2 | inconclusive [inhibitor, partial curve] | – |
| CC(C)NC(=O)CCNC(=O)c1ccc(F)cc1 | active: 2.82 µM | – |
| O=C1C(=Cc2cccs2)C(=O)c2ccccc21 | inconclusive [inhibitor, single point] | – |
| O=C(c1cnn2c1NC(c1ccco1)CC2C(F)(F)F)N1CCN(c2cccc(Cl)c2)CC1 (stereo not given) | active: 3.16 µM | – |

| SMILES | Potency | activity, negative = inhibition |
| --- | --- | --- |
| CN(C)S(=O)(=O)Oc1cccc(C(=O)Nc2ccc(Cl)c(Cl)c2)c1 | active: 12.6 µM | – |
| O=C(c1cc(C(F)(F)F)cc(C(F)(F)F)c1)N1CCC2(CC1)CN(c1ccccn1)C2 | inconclusive [inhibitor, partial curve] | – |
| O=C1C2CC=C(Cl)CC2C(=O)N1CCC[n+]1cccc2ccccc21 (stereo not given) | inconclusive [inhibitor, single point] | – |
| Cc1sc(NC(=O)CSc2nnc(C)c(=O)[nH]2)c(C#N)c1C | active: 14.1 µM | – |
| COC(=O)Nc1snnc1C | inactive | – |
| NCc1ccc(-c2nc3ccccc3o2)cc1 | inconclusive [inhibitor, partial curve] | – |
| Cc1nnc(SCC(=O)Nc2ncc(Cl)cc2Cl)n1Cc1ccccc1 | inconclusive [inhibitor, single point] | – |
| O=C(Nc1ccccc1C(F)(F)F)C1CC(=O)N(c2ccccc2F)C1 (stereo not given) | inconclusive [inhibitor, partial curve] | – |
| COc1cc(OC)c2c(N)c(C#N)c(C(F)(F)C(F)(F)F)nc2c1 | inconclusive [inhibitor, single point] | – |
| CCC(=O)Nc1ccc(C(=O)c2ccccc2)cc1 | inconclusive [inhibitor, partial curve] | – |
| CCCCCCn1c2c(c(=N)c3c1CCC3)CCC2 | inconclusive [inhibitor, single point] | – |
| CCOc1ccc2nc(SCC(=O)c3ccc(C)s3)sc2c1 | inconclusive [inhibitor, single point] | – |
| CCCSC1=C(C#N)C2(CCCCC2)C(C#N)=C(N)N1 | active: 2 µM | – |
| N#CC1CCN(c2ncccc2[N+](=O)[O-])CC1 | inconclusive [inhibitor, single point] | – |
| Cc1ccc(C(=O)c2ccccc2C(=O)OCC(=O)NCC2CCCO2)cc1 (stereo not given) | inactive | – |
| COc1ccc(OCc2n[nH]c(=S)o2)cc1 | active: 10 µM | – |
| Nc1nc(N)c2nn(-c3ccc(C(=O)O)cc3)nc2n1 | inconclusive [inhibitor, partial curve] | – |
| COc1cc2nc3c(c([Si](C)(C)C(C)(C)C)c2cc1OC)Cn1c-3cccc1=O | inconclusive [inhibitor, partial curve] | – |
| CCC(CC)C(=O)OCC(=O)NC12CC3CC(CC(C3)C1)C2 | inconclusive [inhibitor, single point] | – |
| CC1=NN(C(=O)c2ccc(Br)cc2)C(O)(C(F)(F)OC(F)(F)F)C1 (stereo not given) | inconclusive [inhibitor, single point] | – |
| COc1ccc(Cn2c(N)c(C#N)c3nc4ccccc4nc32)cc1 | inconclusive [inhibitor, partial curve] | – |
| CCN(CC)C(=O)CSc1nnc(CNc2ccc(F)cc2)n1Cc1ccco1 | inconclusive [inhibitor, single point] | – |

Source: PubChem BioAssay AID1030 (National Center for Advancing Translational Sciences (NCATS), 2008)
